# According to the supplement of paper PMC10126150:
# Values marked as one replicate rest on one cluster of the flow cell; about a third of the high ones do not repeat.
# System: ATP
# Assay: switch fluorescence ratio, 500 uM ATP over buffer (Cy3 cluster intensity, sum of 5 cycles each) (fold (ratio)); higher = stronger signal-on switching upon ATP binding; sequences stand for … in TCGTCGGCAGCGTCAGATGTGTATAAGAGACAGTTTTTTTTTTTTTTTTTTTTTTTTT…TC
# Settings: aptamer strand: ATP DNA aptamer (quencher-CACCTGGGGGAGTATTGCGGAGGAAGG + anchor), 100 nM annealed; ATP concentration: 500 uM; one replicate
# Summary of the method: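 Cy3-labelled switching-strand clusters on a modified Illumina MiSeq flow-cell were annealed to 100 nM quencher-labelled ATP aptamer, imaged in selection buffer, then imaged after 15 min with 500 uM ATP at 22 °C. Five buffer/ATP cycles ran, with NaOH stripping and re-annealing between them. The fluorescence ratio is summed target-cycle over summed buffer-cycle Cy3 intensity per cluster, averaged per switch-domain sequence. Clusters outside 100-1000 RFU were excluded.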
# 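Note: ATP exposure 15 min at 22 °C before imaging.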
row,Sequence,switch fluorescence ratio
1,TGTCATTATC,1.01
2,TGCCCTTAGT,1.02
3,CTAATTCAGT,0.983
4,CACCGTTCTG,1.02
5,TTTACCAGTC,1.02
6,AGAGCTAGAG,1.01
7,AACAATATCC,1.03
8,TCTGAAGTAG,1.02
9,CACCCCGAT,1.18
10,AATCTTCA,1.13
11,GAGCTTTGAA,0.994
12,AAAATAATTT,1.05
13,GTGTCCTCCG,2.69
14,AAGGTGCTAC,1.1
15,TCCTGGCCGT,1.07
16,ACGGTTGCTT,1.07
17,TCCGGGATCG,1.02
18,GGGATCGGGT,0.988
19,GGTGGTTTGC,1.11
20,GCAAGGCGGG,0.942
21,GCATGGTTGC,0.996
22,GATACCTTAG,1.04
23,AATCCGAGAC,1.31

row,Sequence,switch fluorescence ratio
1,CAAAATACCT,1.43
2,TTAGTTGAC,1.03
3,GCGTCACAGG,1.25
4,GAGGGATTT,0.957
5,GTTGATTAGG,1.03
6,GATATCCGGT,0.939
7,ATTGTGGACG,0.951
8,GAAAATTCTG,0.993
9,CATATAAAAT,1.01
10,ACGATATCTC,1.13
11,TTGAACACCG,1.13
12,GATGTACTAT,1.04
13,GTGCAGGTG,2.38
14,CCATCGAATT,1.07
15,ATTGCACAGC,1.03
16,GATGGGATCC,0.998
17,AAGTGAGCCG,1.03
18,GCCAGGGGCC,1.01
19,TAGTACCTAT,1.05
20,CTCAGTGGGA,0.919
21,AGTTGCAGTA,0.934
22,CTAAAGATTA,1.02
23,ACGAGATATG,1.01

row,Sequence,switch fluorescence ratio
1,AGTGACGGAT,1.04
2,GATGAGTACT,1.01
3,GCCCAAGAGG,1.03
4,AATTATTTAC,1.04
5,CTAAGCATGT,1.77
6,TTTTGTGACC,1.02
7,ATGACTCACG,1.05
8,TGCAACAGAT,1.01
9,CGAGTAAAGT,0.984
10,ACGTTAAATC,1.08
11,GTCGGAGTTT,0.946
12,GGATTATTAT,1.01
13,GGGTCGTATA,0.993
14,TCATGGATTG,1
15,GATTCTGTCT,1.06
16,GCCACCATTT,0.97
17,GATCGTCAGG,0.985
18,GGTTCCTAGA,1.02
19,TTTTTTAGG,1.03
20,AGGAGATTGT,1.03
21,AGTTCCGCTT,1.3
22,CATGACGTGG,0.962
23,TGCCGTGTTT,1.03

row,Sequence,switch fluorescence ratio
1,AAAAGTACAT,1.19
2,GACTGTACAT,1.37
3,TTCGAGATTC,0.969
4,CATAACGGAT,1.01
5,GGGGGCCATT,1
6,CGGTACGCGG,0.945
7,CGTGGGGACC,0.959
8,CGAAAAATAT,1.04
9,TGGTCCCCGA,0.996
10,GCCGTAAAGG,0.964
11,GGTAGATTAG,0.961
12,ATATTTTTCC,1.09
13,TGCTAATAGC,1.04
14,GCTGTGGGAA,1.03
15,TGATTATTCT,1.05
16,GTTGTGTGA,1
17,TAAGTAGGGA,0.917
18,TTCAACCTAC,2.22
19,CGGAGTAGTG,1.08
20,ATCTCGGGTA,1.01
21,GTTGTATATT,1.01
22,ACATAACCCG,1.06
23,AAGTTGAAGC,1.01

row,Sequence,switch fluorescence ratio
1,GCTGCACTCC,2.15
2,TCAAACTAGA,0.955
3,CTCTGATGCG,1.01
4,CAATCGAAAG,1.03
5,AGCGCCGTAG,1.02
6,TCTGAGAACA,0.995
7,ACGTAGCTCA,1.58
8,GGTTTTGA,1.03
9,GGTGGCTCCG,1
10,CGTACCAGGA,1.05
11,CTTATTTCGA,0.979
12,TTTCGGGCCG,0.953
13,CCGGAATCGA,1.22
14,TTGTTCTACT,0.971
15,TCACGAGTCA,0.969
16,AAGGAGGTCT,0.971
17,CTTGAAAACA,0.996
18,GCGGATGGAG,1.02
19,AGAAGGTCCA,1.03
20,AAGATTAACG,0.964
21,AGAGATAGAT,1.03
22,AGTAATGTTA,0.95
23,GAGTTTTTCG,1.01

row,Sequence,switch fluorescence ratio
1,TAAACGCGCA,1.1
2,GGCCATCGTT,0.962
3,AGGTCCAAGG,1
4,GATCTCTCAT,0.997
5,AGTCTGGGGT,0.975
6,CCATTGAGTA,0.966
7,AGCCGGTCTA,0.968
8,TAGTAGCTCC,1.2
9,CGGGCCCTCG,1.01
10,ACAGGCCACA,1.07
11,GATCGACGAA,0.984
12,CTGCAAGGAG,1.13
13,CAATGGAGAT,1.03
14,AAGTAATTGA,1.01
15,AGGTAGATA,0.914
16,TTAGGGCGAT,0.975
17,CTGCTGACAC,1.14
18,GAGGTACCAT,0.933
19,GCTTCCTCGG,3.12
20,GCGTGGGGTG,1.04
21,GATGTGCTAG,0.946
22,GTACGCAACC,3.52
23,GCCGGTGGGA,1.03

row,Sequence,switch fluorescence ratio
1,CCCGGGATTT,1.01
2,GGCTTGTCAC,1.02
3,TACGGCGACT,1.06
4,GACATGATGG,1.03
5,GAGCACACGT,1.07
6,AGCGTTGCTG,0.997
7,GGTATGCATA,1.04
8,GGGACATGTT,1.02
9,AGAGGTAATC,1.02
10,TAGTACTAAT,0.982
11,GGAGAGAATG,0.966
12,GCTGAATTTC,1
13,GTGCGTATTT,0.966
14,CAAATCTTAG,1.01
15,GATGTCTCTT,0.994
16,TCTCATTGTC,1
17,AGCCTTCTTT,1.08
18,AAGACATGGA,1
19,TGAGTATCAT,0.974
